“And” between values parts separate entries of the source, which are not always exact repeats. Equal entries are not always repeated. Screen size: about 360,000 compounds; about 6,000 (1.7%) were called active. Inconclusive means that the source gave no clear call. Such entries were picked first, then a sample of the others. Calls come from the whole dose curve; as a rule, active = well fitted cell-killing curve with a large enough effect; inconclusive = small, poorly fitted or top-dose-only effect, or effect the other way; inactive = flat fitted curve, though single readings scatter. Potencies of inconclusive entries are left out as doubtful fits.
test: qHTS for induction of synthetic lethality in tumor cells producing 2HG: qHTS for the HT-1080-NT fibrosarcoma cell line; conditions: HT-1080-NT fibrosarcoma viability, CellTiter-Glo ATP luminescence, 48 h; activity, negative = less viability: at 46.1 µM (top of the series) unless noted;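 note: NT is the 2HG producing partner of a matched IDH1 knockdown line; nearly all actives have a fitted effect of over 55% in size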;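 for activity, negative = less viability: 0% = DMSO-treated cells and -100% = media-only wells without cells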
Procedure, shortened: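 HT-1080-NT fibrosarcoma cells (2HG-overproducing), 750 cells/well in RPMI with 5% FBS, dosed after 2 h and incubated 48 h at 37C. CellTiter-Glo luminescence normalized to DMSO and no-cell wells; concentration-response curves fitted and classed.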
Potency is the fitted concentration of half-maximal effect; tags give direction and shape of the fitted curve.

Compound | Potency | activity, negative = less viability
O=C(/C=C/Sc1ccccc1)c1ccc(Cl)cc1 | inconclusive [cytotoxic, single point] | 
O=C(NCc1ccncc1)c1cccc(S(=O)(=O)N2CCc3ccccc32)c1 | inconclusive [cytotoxic, single point] | 
COc1cc(NC(=O)N2CCc3nc(NCc4cccc(Oc5ccccc5)c4)ncc3C2)cc(OC)c1OC | inconclusive [cytotoxic, single point] | 
CCSc1ccccc1C(=O)Nc1cccc(OC)c1 |  | inactive: 25.1%
COc1cc(/C=N/N=C2/NC(=O)C(CC(=O)O)S2)ccc1OCc1ccc(Cl)cc1 (stereo not drawn) |  | inactive: 9.76%
O=C(N/N=C/C(Cl)=C/c1ccccc1)c1ccc2c(c1)OCO2 | inconclusive [cytotoxic, single point] | 
COCc1cc(CN2CCN(C)CC2)c(O)c2ncccc12 | inconclusive [cytotoxic, single point] | 
CC1(C(=O)NCc2ccco2)Cc2c(-c3cccc(C(F)(F)F)c3)ccnc2O1 (stereo not drawn) | inconclusive [cytotoxic, full curve] | 
C/C(=N\NC(=O)COc1ccccc1-c1ccccc1)c1cccnc1 |  | inactive: -13.4%
COc1ccccc1-c1c(C)c(C)nc(N)c1C#N |  | inactive: 2.42%
COc1ccc(N2C(=O)C(CC(=O)Nc3ccccc3)N(CCc3ccc(OC)c(OC)c3)C2=O)cc1 (stereo not drawn) |  | inactive: -0.525%
O=C1N[C@@H](Cc2ccccc2)COC(=O)[C@H](Cc2ccc(F)cc2)CC/C=C/C[C@H]1CC(=O)N(CCO)Cc1ccccc1 | inconclusive [cytotoxic, single point] | 
COc1cc(OC)c(OC)cc1/C=C/C(=O)c1ccc(NS(=O)(=O)c2ccc(C)cc2)cc1 |  | inactive: -20.9%
COc1ccccc1[C@]1(C)ON(c2ccccc2C(F)(F)F)C1=O | inconclusive [cytotoxic, single point] | 
Cc1ccc(S(=O)(=O)Nc2ccc(O)c3ccccc23)c(C)c1 | active: 29.1 µM | 
COC(=O)[C@@]12CCCN1[C@H](c1ccc(-c3ccc(Cl)c(Cl)c3)cc1)[C@H]1C(=O)N(C)C(=O)[C@H]12 |  | inactive: 0.0127%
Cc1cc(C)c(C)c(S(=O)(=O)NC(C(=O)O)C(C)C)c1C (stereo not drawn) |  | inactive: 5.75%
CCCCC(=O)Nc1ccc(C(=O)OC2CCCCC2)cc1 | inconclusive [cytotoxic, single point] | 
CC1=C(C(=O)N2CCCCCC2)CC(CC(=O)NCc2cccc3ccccc23)C(=O)N1CCC1=CCCCC1 (stereo not drawn) | inconclusive [cytotoxic, single point] | 
Cc1ccc(NC(=O)c2ccc(NCCCN3CCC(C)CC3)c([N+](=O)[O-])c2)cc1F | inconclusive [cytotoxic, single point] | 
CCc1sc(C(=O)NCc2cc(C)n(C)n2)cc1Br | inconclusive [cytotoxic, single point] | 
CC(C)NC(=O)CN1CCN(Cc2nc(C(c3ccccc3)c3ccccc3)no2)CC1 |  | inactive: 13.1%

Compound | Potency | activity, negative = less viability
CC(C)COCC(CN(Cc1ccccc1)c1ccccc1)N1CCCC1 (stereo not drawn) | active: 12.6 µM and active: 16.4 µM | 
CCOc1ccc(-c2cc(C(=O)NCCCN3CCCC3)c3ccccc3n2)cc1 | inconclusive [cytotoxic, single point] | 
Cc1ccc(-c2nnn(CC(=O)N(Cc3cccs3)C(C(=O)NC3CCCC3)c3ccncc3)n2)cc1 (stereo not drawn) | active: 15.8 µM | 
COc1ccc(NC(=O)[C@H](Cc2c[nH]c3ccccc23)NC(=O)[C@@H]2Cc3ccccc3CN2)cc1 | inconclusive [cytotoxic, partial curve] | 
Clc1ccc(-c2nnc(NCc3ccccc3)c3ccccc23)cc1 | inconclusive [cytotoxic, single point] | 
CC(C)(C)OC(=O)[C@H](Cc1ccccc1)NC(=O)c1[nH]cnc1C(=O)Nc1cccc(Cl)c1 | inconclusive [cytotoxic, single point] | 
O=C(Nc1ccc(Cc2ccncc2)cc1)C1CCC(N2C(=O)C3CCCCC3C2=O)CC1 (stereo not drawn) |  | inactive: -7.1%
CC1CC2C(C(O)CC3(C)C2CCC3(O)C(=O)CO)C2(C)C=CC(=O)C=C12 (stereo not drawn) | inconclusive [rising, full curve] | 
O=C1N[C@@H](c2ccccc2)COC(=O)[C@@H](Cc2ccc(F)cc2)CC/C=C/C[C@H]1CC(=O)N(CCO)Cc1ccccc1 | inconclusive [cytotoxic, single point] | 
CC1CN(C(=O)c2ccccc2Nc2ccc(SC(F)F)cc2)CC(C)O1 (stereo not drawn) |  | inactive: 21.3%
Cc1ccc(C(NC(=O)C2CCN(CCOc3ccc(Cl)cc3)CC2)c2ccccn2)cc1 (stereo not drawn) | inconclusive [cytotoxic, single point] | 
COCCCNC(=O)c1ccc(Cn2c(=O)c3ccccc3n(Cc3ccccc3C)c2=O)cc1 | inconclusive [cytotoxic, partial curve] | 
COc1ccc(NC(=O)c2c(-c3ccccc3Cl)noc2C)c(OC)c1 |  | inconclusive: -35.1% [cytotoxic]
CC(=O)N1c2ccc(S(=O)(=O)N3CCC(C(=O)NCCc4ccc(Cl)cc4)CC3)cc2CC1C (stereo not drawn) | inconclusive [cytotoxic, single point] | 
CC(C)C[C@@H](CO)N1CCN(Cc2cccnc2)CCC1=O |  | inactive: 11.5%
Cc1cc(=O)[nH]c(SCc2nnc(-c3ccccc3)o2)n1 |  | inactive: 11.1%
O=C(CSc1nnc(NC(=O)C2CC2)s1)Nc1ccccc1Cl | inconclusive [cytotoxic, partial curve] | 
COc1ccc(/C=C/C(=O)c2cc(F)ccc2OC(=O)c2ccccc2C)cc1OC | active: 1.3 µM | 
CCCCCCn1c(=O)n2n(c1=O)C[C@]1(OC(=O)NCC3CCCCC3)CN(S(=O)(=O)c3ccc(C)cc3)C[C@]1(O)C2 | inconclusive [cytotoxic, single point] | 
Cc1cc(Nc2cccc(Br)c2)c2ccccc2n1 | inconclusive [cytotoxic, partial curve] | 
O=C(Nc1ccc(Cl)cc1)c1cc(S(=O)(=O)N2CCOCC2)cs1 |  | inconclusive: -30.8% [cytotoxic]
